The supplement of paper PMC9446081
In all, about 39,000 compounds went through this assay and about 220 (0.56%) showed activity. The list shows a part of the results.

These molecules were tested on Escherichia coli K-12 BW25113 (assay: relative growth (OD600 normalised to plate interquartile mean) (fraction); higher = less growth inhibition, active = 0.2 or less). Conditions: 50 µM; LB; incubation time: overnight (16-24 h).
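Further: static incubation at 37 °C against the wild-type strain, values averaged over two biological replicates.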

SMILES | relative growth
O=C(C[C@H]1C=C[C@H](NC(=O)Nc2cc(F)ccc2F)[C@@H](CO)O1)NCCCN1CCOCC1 | inactive: 1.03
Cc1noc(C)c1S(=O)(=O)Nc1ccc2c(c1)C(=O)N([C@H](C)CO)C[C@H](C)[C@@H](CN(C)C(=O)NC1CCCCC1)O2 | inactive: 0.992
C[C@@H]1CN([C@@H](C)CO)C(=O)c2cc(NC(=O)Nc3ccccc3)ccc2O[C@H]1CN(C)Cc1ccc(C(F)(F)F)cc1 | inactive: 1.03
C[C@H]1CN([C@@H](C)CO)C(=O)c2cc(NC(=O)Nc3ccccc3)ccc2O[C@@H]1CN(C)CC1CCCCC1 | inactive: 0.978
CNC[C@@H]1OCCCC[C@@H](C)Oc2ccc(NC(=O)CCCN(C)C)cc2C(=O)N([C@H](C)CO)C[C@@H]1C | inactive: 0.996
Cc1noc(C)c1NC(=O)N(C)C[C@@H]1OCCCC[C@H](C)Oc2ccc(NS(=O)(=O)c3cccs3)cc2C(=O)N([C@@H](C)CO)C[C@@H]1C | inactive: 1
C[C@@H]1CN([C@H](C)CO)C(=O)Cc2cc(NC(=O)CCN3CCOCC3)ccc2O[C@@H]1CN(C)S(=O)(=O)c1ccccc1 | inactive: 1
CN(C)CC#Cc1ccc([C@@H]2[C@@H](CO)N3C(=O)CN(C(=O)c4cccnc4)C[C@@H]23)cc1 | inactive: 1.02
COc1ccc(S(=O)(=O)Nc2ccc3c(c2)C(=O)N([C@@H](C)CO)C[C@@H](C)[C@H](CN(C)CC2CCCCC2)OCCCC[C@@H](C)O3)cc1 | inactive: 1.03
C[C@@H]1CN([C@@H](C)CO)C(=O)c2cc(NC(=O)NC3CCCCC3)ccc2O[C@@H](C)CCCCO[C@@H]1CN(C)Cc1ccncc1 | inactive: 0.983
Cc1ccc(S(=O)(=O)Nc2ccc3c(c2)C(=O)N([C@H](C)CO)C[C@H](C)[C@H](CN(C)Cc2ccc(C(=O)Nc4ccccc4N)cc2)OCCCC[C@@H](C)O3)cc1 | inactive: 0.986
CC1Cc2ccccc2N1NC(=O)c1ccc(Cl)c(S(N)(=O)=O)c1 (stereo not given) | inactive: 1
Cc1noc(C)c1NC(=O)Nc1ccc2c(c1)C(=O)N([C@@H](C)CO)C[C@H](C)[C@@H](CN(C)S(=O)(=O)c1ccccc1)OCCCC[C@H](C)O2 | inactive: 1
C[C@H](CO)N1C[C@H](C)[C@H](CN(C)Cc2ccccc2)OCCCC[C@H](C)Oc2ccc(NC(=O)Cc3ccccc3)cc2C1=O | inactive: 1.01
CCCNC(=O)N(C)C[C@@H]1Oc2cc(-c3ccccc3F)ccc2S(=O)(=O)N([C@@H](C)CO)C[C@H]1C | inactive: 1
O=C(O)C1CCCN1 (stereo not given) | inactive: 0.976
Cc1ccc(S(=O)(=O)Nc2ccc3c(c2)CC(=O)N([C@@H](C)CO)C[C@@H](C)[C@@H](CN(C)S(=O)(=O)c2c(C)noc2C)O3)cc1 | inactive: 1
Cn1cnc(CCNC(=O)C[C@H]2CC[C@H]3[C@@H](COC[C@@H](O)CN3C(=O)Nc3ccc(C(F)(F)F)cc3)O2)c1 | inactive: 0.935
C[C@@H]1CN([C@@H](C)CO)C(=O)c2cc(NC(=O)Nc3cccc4ccccc34)ccc2O[C@@H](C)CCCCO[C@H]1CN(C)Cc1ccc2c(c1)OCO2 | inactive: 0.986
C[C@@H]1CN([C@H](C)CO)C(=O)c2cccc(NC(=O)c3cnccn3)c2O[C@@H]1CN(C)S(C)(=O)=O | inactive: 0.9

SMILES | relative growth
COc1ccc(S(=O)(=O)N(C)C[C@H]2OCCCC[C@H](C)Oc3ccc(NS(=O)(=O)c4ccc(Cl)cc4)cc3C(=O)N([C@H](C)CO)C[C@H]2C)cc1 | inactive: 1.04
C[C@H](CO)N1C[C@H](C)[C@H](CN(C)S(C)(=O)=O)Oc2c(NC(=O)CCCCCC(=O)Nc3ccccc3N)cccc2C1=O | inactive: 1.01
C=CCOC(=O)[C@H]1[C@@H]2C(=O)O[C@@H](c3ccccc3)[C@@H](c3ccccc3)N2[C@@H](c2ccc(OCCOC(=O)[C@@H]3C[C@@H]4C(=O)N[C@@H](CC(C)C)C(=O)N4[C@@H]3c3cccc(OCCO)c3)cc2)[C@]12C(=O)Nc1ccccc12 | inactive: 1.02
Cc1ccc(S(=O)(=O)Nc2ccc3c(c2)C(=O)N([C@@H](C)CO)C[C@@H](C)[C@H](CN(C)S(=O)(=O)c2ccc(F)cc2)O3)cc1 | inactive: 1.02
C[C@@H]1CN([C@@H](C)CO)C(=O)c2cc(NS(=O)(=O)c3ccc(F)cc3)ccc2O[C@@H](C)CCCCO[C@H]1CN(C)S(=O)(=O)c1cn(C)cn1 | inactive: 1.01
CO[C@@H]1CN(C)C(=O)c2cc(NS(C)(=O)=O)ccc2OC[C@@H](C)N(C(=O)C2CCOCC2)C[C@@H]1C | inactive: 1.01
CC1=NN(C)C(=O)CC1 | inactive: 0.991
O=C(CN1CCOCC1)N[C@@H]1CC[C@H](CCn2cc(C3CCCC3)nn2)O[C@H]1CO | inactive: 1.03
COC(=O)CCCCCCNC(=O)c1ccc(NCc2cn(Cc3ccc(C(=O)c4ccc(Cn5cc(CNc6ccc(C(=O)NCCCCCCC(=O)OC)cc6)nn5)cc4)cc3)nn2)cc1 | inactive: 0.899
C[C@@H]1CN([C@@H](C)CO)C(=O)c2cc(C#Cc3ccccc3F)cnc2O[C@H]1CN(C)S(=O)(=O)c1ccccc1 | inactive: 1.01
C[C@@H]1CN([C@@H](C)CO)C(=O)Cc2cc(NS(=O)(=O)c3ccccc3)ccc2O[C@@H]1CN(C)Cc1ccc(Oc2ccccc2)cc1 | inactive: 0.927
CNC(=O)C[C@@H]1CC[C@@H]2[C@H](COC[C@H](O)CN2C(=O)c2ccccn2)O1 | inactive: 0.963
CN(C)C(=O)C[C@@H]1CC[C@H](NC(=O)C2CCOCC2)[C@@H](CO)O1 | inactive: 0.998
CCC(=O)c1c(O)cc(O)cc1O | inactive: 1.06
CCc1c(C)[nH]c2c1C(=O)C(CN1CCOCC1)CC2.Cl (stereo not given) | inactive: 1.11
C[C@@H](O)/C=C/c1cccc[n+]1C | inactive: 0.971
Cc1noc(C)c1NC(=O)Nc1cccc2c1O[C@H](CN(C)C(=O)NC(C)C)[C@H](C)CN([C@@H](C)CO)C2=O | inactive: 0.993
Cc1noc(C)c1NC(=O)Nc1ccc2c(c1)C(=O)N([C@H](C)CO)C[C@H](C)[C@H](CN(C)C(=O)Nc1ccc(F)cc1)OCCCC[C@@H](C)O2 | inactive: 0.993
O=C(CCCCCC(=O)N/N=C/[C@H](O)[C@@H](O)[C@H](O)CO)NO | inactive: 1
CN1C(=O)c2cc(NC(=O)C3CCOCC3)ccc2OC[C@H]2O[C@H](CC(=O)NCCc3ccncc3)CC[C@@H]21 | inactive: 0.986

SMILES | relative growth
C[C@@H]1CN([C@@H](C)CO)C(=O)c2cc(NS(=O)(=O)c3ccc(F)cc3)ccc2O[C@H]1CN(C)Cc1ccc(Cl)c(Cl)c1 | inactive: 0.962
C[C@@H]1CN([C@H](C)CO)C(=O)CCCn2nncc2CO[C@@H]1CN(C)Cc1ccc(C(=O)Nc2ccccc2N)cc1 | inactive: 0.969
CC[C@@H]1OC(=O)[C@H](C)[C@@H](O[C@H]2C[C@@](C)(OC)[C@@H](O)[C@H](C)O2)[C@H](C)[C@@H](O[C@@H]2O[C@H](C)C[C@H](N(C)C)[C@H]2O)[C@](C)(O)C[C@@H](C)/C(=N\OCOCCOC)[C@H](C)[C@@H](O)[C@]1(C)O | active: 0.165
COc1ccc(S(=O)(=O)Nc2cccc3c2O[C@@H](CN(C)Cc2ccc(-c4ccccc4)cc2)[C@H](C)CN([C@@H](C)CO)C3=O)cc1 | inactive: 1.03
O=C(c1ccccc1Cl)N(c1ccc2oc(=O)sc2c1)S(=O)(=O)c1ccc(Br)cc1 | inactive: 1.02
C[C@H](CO)N1C[C@H](C)[C@@H](CN(C)CC2CC2)OCCCC[C@H](C)Oc2ccc(NC(=O)NC3CCCCC3)cc2C1=O | inactive: 0.982
Cc1ccc(S(=O)(=O)Nc2ccc3c(c2)C(=O)N([C@@H](C)CO)C[C@H](C)[C@@H](CN(C)C(=O)Nc2ccccc2)OCCCC[C@@H](C)O3)cc1 | inactive: 1.01
COc1ccc(S(=O)(=O)Nc2ccc3c(c2)CC(=O)N([C@@H](C)CO)C[C@H](C)[C@H](CN(C)S(=O)(=O)c2ccccc2)O3)cc1 | inactive: 1.01
CCC1OC(=O)C(C)C(OC2CC(C)(OC)C(O)C(C)O2)C(C)C(OC2OC(C)CC(N(C)C)C2O)C(C)(O)CC(C)C2NC(COCCOC)OC(C2C)C1(C)O (stereo not given) | inactive: 0.433
Cc1ccc(S(=O)(=O)N(C)C[C@H]2Oc3ccc(NC(=O)CCCN(C)C)cc3C(=O)N([C@@H](C)CO)C[C@@H]2C)cc1 | inactive: 0.981
Cc1ccc(N(CC(=O)O)S(C)(=O)=O)cc1 | inactive: 0.973
O=C(C[C@@H]1CC[C@@H]2[C@H](COC[C@@H](O)CN2S(=O)(=O)c2ccc(F)cc2)O1)N[C@H]1CCN(Cc2ccccc2)C1 | inactive: 1
CC(C)CC#Cc1cnc2c(c1)C(=O)N([C@@H](C)CO)C[C@@H](C)[C@H](CN(C)S(=O)(=O)c1cccs1)O2 | inactive: 1
FC(F)(Cl)C(F)(F)Cl | inactive: 1.05
NCCC(=O)N1c2ccccc2Sc2ccccc21 | inactive: 0.932
O=S1(=O)N[C@H]2CCCN2c2ccccc21 | inactive: 0.846
CN(C)CCCNC(=O)C[C@@H]1C=C[C@@H](NS(=O)(=O)c2ccccc2)[C@@H](CO)O1 | inactive: 1.02
C[C@H]1CN([C@@H](C)CO)C(=O)CCCn2nncc2CO[C@H]1CN(C)C(=O)Nc1ccnc(N2CCOCC2)c1 | inactive: 1.03
C[C@@H]1CN([C@H](C)CO)C(=O)c2cccc(NC(=O)C3CCOCC3)c2O[C@@H]1CN(C)S(=O)(=O)c1cn(C)cn1 | inactive: 0.98
COc1cccc(S(=O)(=O)Nc2ccc3c(c2)[C@@H]2C[C@@H](CC(=O)NC4CCCCC4)O[C@H](CO)[C@@H]2O3)c1 | inactive: 0.962
